IC50 is the fitted dose that halves viability relative to control wells, and lower means more sensitive; a fit beyond the top or the lowest dose is shown as a bound at that dose. The AUC spans the tested range (256-fold, ending at the top dose) of the same fit; values near 1 show little effect. For some assays here: A top dose marked as inferred is not printed in the source and was worked back from the curve model.
Columns and labels:
Experiment in all cases: Viability of human cancer cell lines after 72 h of drug (GDSC screen)
MS-275 = compound: Nc1ccccc1NC(=O)c1ccc(CNC(=O)OCc2cccnc2)cc1 [MS-275]; settings: top dose 5 µM; top dose inferred
Description: (§1)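 Human cancer cell lines in 384-well plates, medium with 10% serum, drug for 72 h over a 256-fold dose range (nine 2-fold or five 4-fold steps up to the top dose). Adherent lines were fixed and stained with the nucleic acid dye Syto60, suspension lines read with resazurin; signal relative to control wells, capped at 0 and 100%. One two-parameter sigmoid per drug and line, fitted in a mixed model over all curves with the slope shared within a line.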

HG-6-64-1 = compound: CCN1CCN(Cc2ccc(NC(=O)c3ccc(C)c(/C=C/c4cnc5[nH]ccc5c4OC)c3)cc2C(F)(F)F)CC1 [HG-6-64-1]; settings: top dose 5.12 µM; top dose inferred
Description: as §1

AV-951 = compound: COc1cc2nccc(Oc3ccc(NC(=O)Nc4cc(C)on4)c(Cl)c3)c2cc1OC [AV-951]; settings: top dose 0.128 µM; top dose inferred
Description: as §1

KIN001-244 = compound: O=C(NC(COc1ccc2[nH]c(=O)[nH]c2c1)c1ccccc1)c1cccn(Cc2ccc(F)c(F)c2)c1=O [KIN001-244]; settings: top dose 20 µM; top dose inferred
Description: as §1

PF-4708671 = compound: CCc1cncnc1N1CCN(Cc2nc3ccc(C(F)(F)F)cc3[nH]2)CC1 [PF-4708671]; settings: top dose 10 µM; top dose inferred
Description: as §1

Trametinib = compound: CC(=O)Nc1cccc(-n2c(=O)n(C3CC3)c(=O)c3c(Nc4ccc(I)cc4F)n(C)c(=O)c(C)c32)c1 [Trametinib]; settings: top dose 1 µM
Description: as §1

I-BET-762 = compound: CCNC(=O)C[C@@H]1N=C(c2ccc(Cl)cc2)c2cc(OC)ccc2-n2c(C)nnc21 [I-BET-762]; settings: top dose 20 µM; top dose inferred
Description: as §1

Cell Line	AUC (MS-275)	IC50 (MS-275) [µM]	AUC (HG-6-64-1)	IC50 (HG-6-64-1) [µM]	AUC (AV-951)	IC50 (AV-951) [µM]	AUC (KIN001-244)	IC50 (KIN001-244) [µM]	AUC (PF-4708671)	IC50 (PF-4708671) [µM]	AUC (Trametinib)	IC50 (Trametinib) [µM]	AUC (I-BET-762)	IC50 (I-BET-762) [µM]
DOHH-2 (B-cell lymphoma, suspension)	0.899	> 5	0.465	0.257	–	–	–	–	–	–	–	–	–	–
ECC12 (stomach, suspension)	0.626	0.762	0.633	0.823	–	–	–	–	–	–	–	–	–	–
EW-12 (Ewing sarcoma, suspension)	0.812	> 5	–	–	–	–	–	–	–	–	–	–	–	–
ML-2 (acute myeloid leukaemia, suspension)	0.738	1.36	0.898	> 5.12	0.989	> 0.128	0.681	3.75	0.949	> 10	–	–	–	–
NCI-H128 (small cell lung carcinoma, suspension)	0.901	> 5	–	–	–	–	–	–	–	–	–	–	–	–
NK-92MI (lymphoid neoplasm, suspension)	0.71	1.17	0.735	1.42	–	–	–	–	–	–	–	–	–	–
RPMI-8226 (myeloma, suspension)	0.815	2.3	0.99	> 5.12	0.989	> 0.128	0.837	11	0.963	> 10	–	–	–	–
TE-441-T (rhabdomyosarcoma, adherent)	0.96	> 5	0.953	> 5.12	0.989	> 0.128	0.927	> 20	–	–	–	–	–	–
UACC-62 (melanoma, adherent)	–	–	0.694	1.11	0.988	> 0.128	0.912	> 20	0.973	> 10	0.105	< 0.00391	0.987	> 20
UACC-893 (breast, adherent)	–	–	0.981	> 5.12	0.981	> 0.128	0.888	> 20	0.749	4.24	0.705	0.29	0.959	> 20
UM-UC-3 (bladder, adherent)	–	–	0.878	4.65	0.984	> 0.128	0.755	6.4	0.953	> 10	0.726	0.26	0.974	> 20
UMC-11 (lung carcinoid, adherent)	–	–	0.932	> 5.12	0.99	> 0.128	0.89	18.8	0.954	> 10	0.977	> 1	0.913	> 20
VMRC-MELG (melanoma, adherent)	–	–	0.923	> 5.12	0.985	> 0.128	0.785	8.99	0.987	> 10	0.948	> 1	0.739	6.24
VMRC-RCZ (kidney, adherent)	–	–	0.552	0.455	0.984	> 0.128	0.866	> 20	0.911	> 10	0.904	> 1	0.967	> 20
WM35 (melanoma, adherent)	–	–	0.632	0.74	0.977	> 0.128	0.756	6.9	0.986	> 10	0.068	< 0.00391	0.804	10.1
WM278 (melanoma, adherent)	–	–	0.347	0.114	0.983	> 0.128	0.784	9.61	0.98	> 10	0.624	0.143	0.903	> 20
WM793B (melanoma, adherent)	–	–	0.509	0.339	0.971	> 0.128	0.855	18.7	0.787	4.84	0.445	0.0435	0.802	11.1
WM1552C (melanoma, adherent)	–	–	0.693	1.12	0.974	> 0.128	0.979	> 20	0.988	> 10	0.718	0.26	0.902	> 20
WM-115 (melanoma, adherent)	–	–	0.899	> 5.12	0.96	> 0.128	0.753	8.04	0.93	> 10	0.351	0.0219	0.891	> 20
YAPC (pancreas, adherent)	–	–	0.83	4.36	0.98	> 0.128	0.94	> 20	0.961	> 10	0.55	0.0885	0.956	> 20
YKG-1 (glioma, adherent)	–	–	0.87	4.91	0.982	> 0.128	0.894	> 20	0.939	> 10	0.67	0.187	0.975	> 20
huH-1 (liver, adherent)	–	–	0.979	> 5.12	0.984	> 0.128	0.984	> 20	0.922	> 10	0.86	> 1	0.984	> 20
no-11 (glioma, adherent)	–	–	0.792	3	0.983	> 0.128	0.891	> 20	0.964	> 10	0.882	> 1	0.937	> 20
